Assay results taken from PubChem BioAssay AID995 (National Center for Advancing Translational Sciences (NCATS), 2007).
“And” between values parts separate entries of the source, which are not always exact repeats. Equal values may be shown once. The campaign covered roughly 72,000 compounds. About 710 (0.99%) were called active. The shares of active, inactive and inconclusive entries below differ from those in the screen. Calls follow the shape of the dose curve; as a rule, active = well fitted inhibition curve with a large enough effect; inconclusive = small, poorly fitted or top-dose-only effect; inactive = no such curve, though single readings can be large or run the other way. No potency is given beside an inconclusive call; the fits are too rough. Some structures have more than one record in an assay (separate samples or runs), and their calls can disagree.

Assay: qHTS Assay for Inhibitors of the ERK Signaling Pathway using a Homogeneous Screening Assay; also: nearly all actives have a fitted effect of over 55% in size
Conditions: HEK293-V1b, vasopressin-stimulated pERK AlphaScreen; activity, negative = inhibition: at 57.5 µM (top of the series) unless noted
Outline: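 Overnight-seeded V1b-HEK293 cells in 1% FBS got compound, then vasopressin (25 nM final, 5 min, 37C), then lysis buffer. AlphaScreen detection of phospho-ERK; activity normalized to basal and full-stimulation controls.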
% is scaled to controls: 0 for no effect and ±100 for the full control effect; potency is read from the fitted curve at half-maximal effect; tags tell the direction and shape of the fitted curve.

Row | SMILES | activity, negative = inhibition | Potency
1 | CCOC(=O)c1oc2ccccc2c1CSc1nnnn1-c1ccc(OC)cc1 | inactive: -10.4% | –
2 | CCCCCn1c(=NC(C)=O)c(C#N)cc2c(=O)n3ccccc3nc21 | inactive: -6.9% | –
3 | c1ccc(CCNc2ncnc3nc[nH]c23)cc1 | – | inconclusive [inhibitor, single point]
4 | COc1cccc(C(=O)N(Cc2ccco2)Cc2cc3cccc(C)c3[nH]c2=O)c1 | – | inconclusive [inhibitor, single point]
5 | Nc1nncn1C(=O)CCc1ccccc1 | – | inconclusive [inhibitor, single point]
6 | COc1cc2nc(CN3C(=O)c4ccccc4C3=O)oc(=O)c2cc1OC | inactive: -25.3% | –
7 | COC(=O)c1[nH]c2cc(OC)c(OC)cc2c1NC(=O)CN1CCN(Cc2ccccc2)CC1 | – | active: 10 µM
8 | COC(=O)c1ccc(Cn2nnc3ccccc3c2=O)o1 | – | inconclusive [inhibitor, full curve, poor fit]
9 | CCN(CC)C(=O)CSc1ncnc2c1cnn2Cc1ccccc1 | – | inconclusive [inhibitor, partial curve, poor fit]
10 | COc1ncc2nc(-c3cc(F)cc(F)c3)c(=O)n(C3CC3)c2n1 | – | inconclusive [inhibitor, partial curve]
11 | Cn1c(=O)c2c(ncn2CC(=O)N2CCN(c3cccc(Cl)c3)CC2)n(C)c1=O | – | inconclusive [inhibitor, partial curve]
12 | CCOC(=O)C1CCN(c2nc(C)nc3c2oc2ccccc23)CC1 | inactive: 11.5% | –
13 | O=C(Nc1cc(C(F)(F)F)ccc1Cl)C1CCN(c2nnc(-n3cccc3)s2)CC1 | – | inconclusive [inhibitor, full curve, poor fit]
14 | O=C(Nc1nc(-c2ccc(S(=O)(=O)N3CCCC3)cc2)cs1)C1COc2ccccc2O1 (stereo unspecified) | – | inconclusive [inhibitor, partial curve]
15 | COc1ccc2c3c([nH]c2c1)[C@H]1C[C@@H]2[C@@H](C[C@@H](O)[C@H](OC)[C@H]2C(=O)O)CN1CC3 | inactive: 2.77% [at 11.5 µM] | –
16 | COc1ncc2nc(-c3ccccc3)c(=O)n(C3CC3)c2n1 | – | inconclusive [inhibitor, single point]
17 | CN(C)C(=O)c1ccc(-c2nccc(NCc3cccs3)n2)cc1 | – | inconclusive [inhibitor, full curve]
18 | O=C(N/N=C\c1ccccc1O)c1ccccc1O | – | inconclusive [inhibitor, full curve, poor fit]
19 | O=C(NCc1ccco1)c1cc2nc(C3CC3)cc(C(F)(F)F)n2n1 | – | inconclusive [inhibitor, single point]
20 | O=C(Nc1ccc(N2CCN(C(=O)c3ccco3)CC2)c(Cl)c1)c1cccs1 | – | inconclusive [inhibitor, single point]
21 | O=C(COC(=O)c1cc(-c2ccco2)nc2ccccc12)NCc1ccc2c(c1)OCO2 | – | inconclusive [inhibitor, full curve, poor fit]
22 | CCOc1cc2[nH]c(=S)n(CCOC)c(=O)c2cc1OCC | – | inconclusive [inhibitor, partial curve]
23 | OC(CN1CCN(c2cccc(C(F)(F)F)c2)CC1)c1c[nH]c2ccccc12 (stereo unspecified) | – | inconclusive [inhibitor, single point]
24 | CCCCNc1nc(N(C)c2ccccc2)nc(-n2ccnc2)n1 | – | inconclusive [inhibitor, full curve]

Row | SMILES | activity, negative = inhibition | Potency
25 | CCOC(=O)C1CCN(CC(=O)Nc2c(C(=O)OC)[nH]c3ccc(Cl)cc23)CC1 | – | active: 25.1 µM
26 | CCOC(=O)c1ccc(NC(=O)CCc2nc(-c3cccc(C)c3)no2)cc1 | – | active: 25.1 µM
27 | CCn1c(SCC(=O)Nc2nc3ccc(OC)cc3s2)nc2c1c(=O)n(C)c(=O)n2C | – | inconclusive [inhibitor, full curve]
28 | COc1ccc(-c2cc(C(F)(F)F)nc(SCC(N)=O)n2)cc1 | – | inconclusive [inhibitor, full curve, poor fit]
29 | COc1cc2c(cc1NC(=O)COC(=O)C1CC(=O)N(Cc3ccco3)C1)oc1ccccc12 (stereo unspecified) | – | inconclusive [inhibitor, partial curve]
30 | C=CCCCCCC | inactive: -7.11% | –
31 | Cn1c(=O)c(-c2ccccc2)nc2cnc(N3CCOCC3)nc21 | inactive: 14.6% | –
32 | COc1ccccc1N1CCN(S(=O)(=O)c2ccccc2)CC1 | inactive: -1.55% | –
33 | Cc1ccc(-c2nc(-c3cccnc3)no2)cc1 | inactive: -8.63% | –
34 | N#Cc1cc2c(nc1SCc1nc3ccccc3[nH]1)CCC2 | – | inconclusive [inhibitor, partial curve]
35 | CCN(C(=O)COc1ccccc1)c1nnc(-c2cccnc2)s1 | – | inconclusive [inhibitor, single point]
36 | COc1ccc2[nH]cc(CCNc3ncncc3-c3cccc(C#N)c3)c2c1 | – | inconclusive [inhibitor, partial curve]
37 | Cc1ccc2cc3cc(C(=O)NCCCN4CCc5ccccc5C4)oc3nc2c1 | inactive: 17.6% | –
38 | COc1ccc(CN(C(C)=O)c2cccc(C)c2C)cc1 | – | inconclusive [inhibitor, single point]
39 | N#CC(CC(=O)O)=C(c1ccccc1)c1ccccc1 | inactive: -10.7% [at 11.5 µM] | –
40 | CN(CCC#N)c1ncnc2scc(-c3ccccc3)c12 | – | inconclusive [inhibitor, single point]
41 | N#Cc1ccccc1Cn1c(=O)n(CCC(=O)NCc2ccco2)c(=O)c2ccccc21 | – | inconclusive [inhibitor, partial curve, poor fit]
42 | Cc1noc(C)c1C(=O)N1CCC2(CC1)CN(c1cccc(-c3ccccc3)c1)C2 | – | inconclusive [inhibitor, partial curve]
43 | c1coc(CNc2ncnc3c2oc2ccccc23)c1 | – | inconclusive [inhibitor, partial curve]
44 | Cc1csc(SCC(=O)c2ccc(S(=O)(=O)N3CCOCC3)cc2)n1 | – | inconclusive [inhibitor, single point]
45 | CCCN1CCN(C(=O)CCCn2c(C)c3cnn(-c4ccccc4)c(=O)c3c2C)CC1 | – | inconclusive [inhibitor, partial curve]
46 | c1ccc(-c2ccc(N3CCCC4(CCNCC4)C3)cc2)cc1 | – | inconclusive [inhibitor, single point]
47 | O=c1oc2c(O)c(O)cc3c(=O)oc4c(O)c(O)cc1c4c23 | – | inactive and active: 20 µM
48 | CCCCn1c(SCC(=O)OCC)nnc1-c1ccoc1C | – | inconclusive [inhibitor, single point]

Row | SMILES | activity, negative = inhibition | Potency
49 | Cc1ccc(SCC(=O)N(Cc2nc(-c3ccccc3)no2)C(C)C)cc1 | – | inconclusive [inhibitor, partial curve]
50 | COc1cc(OC)c(-c2nn3c(C4CCCCC4)nnc3s2)cc1OC | – | inconclusive [inhibitor, single point]
51 | CCOc1ccc(OCC)c(Nc2cc(C)nc3nc(C)nn23)c1 | – | inconclusive [inhibitor, single point]
52 | O=C(Nc1ccccc1)N(O)c1ccc(Cl)cc1 | inactive: -8.36% | –
53 | CC(=O)N(CCP(=O)(c1ccccc1)c1ccccc1)Cc1ccco1 | – | inconclusive [inhibitor, single point]
54 | COc1ccc(C(O)C(CN2CCOCC2)c2ccccc2)cc1F (stereo unspecified) | inactive: 4.46% | –
55 | COc1ccc(C2CC(c3cccc(OC)c3OC)n3nnnc3N2)cc1 (stereo unspecified) | – | inconclusive [inhibitor, partial curve, poor fit]
56 | CCOC(=O)c1[nH]c(C)c(C(=O)OCC(=O)N2CCCCC2C)c1C (stereo unspecified) | – | inconclusive [inhibitor, single point]
57 | c1ccc2c(CC3=NCCN3)cccc2c1 | – | inactive
58 | CC(C)CN1C(=O)c2ccc(C(=O)Nc3ccncc3)cc2C1=O | – | inconclusive [inhibitor, partial curve]
59 | COc1ccc2oc(=O)c(C(=O)N3CCN(c4ccccc4C)CC3)cc2c1 | inactive: -24.1% | –
60 | COc1ccccc1C(=O)N1CCN(c2nc3cc(C)c(C)cc3cc2C#N)CC1 | inactive: 14.4% | –
61 | O=C(c1cccc(F)c1)N1CCC2(CCCN(c3ccccn3)C2)CC1 | inactive: -19.7% | –
62 | Cc1cc(NC(=O)c2cnn3c(C(F)(F)F)cc(-c4ccccc4)nc23)no1 | – | inconclusive [inhibitor, full curve]
63 | C=CCNC(=O)c1ccc(Cl)cc1Cl | inactive: -4.04% | –
64 | COc1cc(C2C3=C(Nc4ncnn42)c2ccccc2CC3)cc(OC)c1OC (stereo unspecified) | inactive: 13.2% | –
65 | CCOc1ccccc1C1CC(c2ccccc2)Nc2nc(N)nn21 (stereo unspecified) | – | inconclusive [inhibitor, partial curve]
66 | Cn1c(=O)[nH]c(=O)c2c1nc(NCCc1ccccc1)n2CC(O)COc1ccccc1 (stereo unspecified) | – | inconclusive [inhibitor, partial curve]
67 | COc1ccc(-c2noc(CN(C)S(=O)(=O)c3ccccc3)n2)cc1OC | – | inconclusive [inhibitor, full curve, poor fit]
68 | Cc1coc2c(C)c3oc(=O)c4c(c3cc12)CCC4 | – | inconclusive [inhibitor, full curve, poor fit]
69 | CC(=O)c1cccc(N2C(=NC(=O)C(C)C)SC3CS(=O)(=O)CC32)c1 (stereo unspecified) | inactive: -3.39% | –
70 | O=C1CC(c2ccc(S(=O)(=O)NCc3ccccc3)cc2)CN1 (stereo unspecified) | – | inconclusive [inhibitor, single point]
71 | Cc1noc(C)c1C(=O)N1CCC[C@@]2(CCN(c3cccc(-c4ccccc4)c3)C2)C1 | – | inconclusive [inhibitor, partial curve]
